For 4 molecules, viability, T/C and IC50 results are on record in PubChem BioAssay AID1918937 (Molecular Pharmacology Branch, DTP, NCI, 2023).

For this experiment, the system named is 521955-158-R2-J5-PDC complex spheroid viability. Kind of experiment: Anticancer human tumor 521955-158-R2-J5-PDC patient-derived pancreatic carcinoma cell line growth inhibition. The conditions noted are these: for viability, T/C: stronger effect = lower value. The source says: Multicellular complex tumor spheroid response to LSD1 Inhibitor Iadademstat in combination with a variety of drugs and investigational agents in selected tumor cell lines
The current study was undertaken to assess response to LSD1 inhibitors in combination with standard-of-care drugs and investigational agents in solid tumor complex spheroid models as well as in the K-562 leukemia. Complex spheroids include a stromal component modeled by human endothelial cells (HUVEC) and fibroblasts modeled by human mesenchymal stem cells (MSCs). The concentration ranges selected for each drug and investigational agent were based upon clinically achievable concentrations if the clinical Cmax of the agent was known.
Compounds. The drugs and investigational agents used in this study are listed on Table 1. All of the agents used, including staurosporine (NSC755774) and gemcitabine (NSC613327), were obtained from the Developmental Therapeutics Program, NCI. FDA-approved anticancer drugs are available from the NCI at http://dtp.nci.nih.gov/branches/dscb/oncology_drugset_explanation.html. Drugs and investigational agents were >95% pure by proton nuclear magnetic resonance (NMR) and liquid chromatography/mass spectrometry (LC/MS). Stock solutions were prepared at 400x in DMSO, stored at -70 degrees C, and diluted in fresh medium prior to their use. The final concentration of DMSO in cell culture wells never exceeded 0.25% (v/v). The FDA-approved anticancer drug set is available from the Developmental Therapeutics Program at https://dtp.cancer.gov/organization/dscb/obtaining/available_plates.htm. All drugs and investigational agents were tested over a range starting from a high concentration at or near the clinical Cmax and decreasing in half-log increments. If the clinical Cmax for an agent had not been determined, the highest concentration tested was 10 microM.
Cell Lines. The patient-derived cancer cell (PDC) lines: 292921-168-R-J2-PDC, K24384-001-R-PDC, and 521955-158-R2-J5-PDC pancreatic carcinomas, 556581-035-R-J1 ovarian carcinoma, 324938-238-R-J1-PDC, 855422-203-R-J1-PDC and 883617-216-R-J1-PDC urothelial bladder carcinomas, 743489-274-T-PDC renal cell carcinoma, 138582-R-J1 Merkel cell tumor, K60290-347-R-J1 and K57222-313-R-J1-PDC glioblastomas, 653999-131-R-J2-PDC, LG0703-F948-PDC, and 349418-098-R-PDC non-small cell lung carcinomas, 885512-296-R-J2-PDC, 171881-019-R-J1-PDC breast carcinomas and 186277-243-T-J2-PDC and 233499-124-R-J2-PDC colon carcinomas were obtained from the NCI Patient-Derived Models Repository (PDMR, https://pdmr.cancer.gov). The established cell lines NCI/ADR-RES (RRID:CVCL_14520 and OVCAR-5 (RRID:CVCL_1628) ovarian carcinomas, 786-O (RRID:CVCL_1051) and A498 (RRID:CVCL_A498) renal cell carcinoma, NCI-H211 (ATCC, cat. CRL-5824; RRID:CVCL_1529), NCI-H196 (ATCC, cat. CRL-5823, RRID:CVCL_1509), SW 1271 (ATCC, cat. CRL-2177, RRID:CVCL_1716) and NCI-H1876 (ATCC, cat. CRL-5902, RRID:CVCL_1503) small cell lung carcinomas, MDA-MB-231 (RRID:CVCL_0062) and MDA-MB-468 (RRID:CVCL_0419)breast carcinomas (10-12). Pooled donor human umbilical vein endothelial cells (HUVEC, Lonza, cat. CC-2519) and human mesenchymal stem cells (hMSC, Lonza, cat. PT-2501) were purchased from Lonza (Walkersville, MD).
Cell Culture. All cells were maintained in an incubator at 37 degrees C and 5% CO2 with 95% humidity. The PDC lines were cultured according to standard operating procedures established by the NCI PDMR (https://pdmr.cancer.gov). Briefly all PDCs were thawed and cultured in Matrigel-coated flasks prepared with a working solution of 1X Ham's F-12 nutrient mix, without supplementation (Invitrogen, Waltham, MA, cat. 11765054), 100 U/mL penicillin-streptomycin (Invitrogen, cat. 15140122), and 2.5% Matrigel (Corning Inc., Corning, NY, cat. 354248) for the first three passages. […]

Some entries of the source have several records that differ or are many. This list holds those alone. An entry can have further records. The values listed for one entry are repeated measurements (runs, samples, wells, individuals or studies). Signs of the kind (2×) give the number of equal values in this list.
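Note: spheroids exposed to agents for seven days.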
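Throughout, for viability, T/C: percent of DMSO vehicle control luminescence viability.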

The term viability, T/C denotes the ratio of treated to control. For the molecule `NC1CC1c1ccc(-c2cccc(O)c2)cc1` (stereo not given), the viability, T/C (compound alone 0.316 µM) was 81, 88.1 (2×), 81.8, 81.5, 93.1, 87.8, 95.2, 77.1, 86.8, 87.4, 72.8, 91.1, 78.8, 87.7, 89.9, 83.2, 83.1, 81.9, 81.3, 97.2, 78.3, 82.7, 88.8, 49.8%; the viability, T/C (compound alone 1 µM) was 73.2, 87.6, 83, 75.8 (2×), 84.9 (2×), 80.4, 82.4, 81.3, 70.2, 75, 78.2, 80.9, 79.4, 93.7, 78.8, 81.9, 80.1, 85.4, 79.7, 74.5, 65.4, 58.6%; the viability, T/C (compound alone 3.16 µM) was 75.4, 82.7, 82.9, 97.2, 89.7, 95, 92.4, 87.5, 86.7, 72.3, 82.1 (2×), 79.4 (2×), 89.2, 75.7, 89, 88.3, 92.5, 76.6, 84.5, 90.4, 86.1, 74.5, 52.2%; the viability, T/C (compound alone 10 µM) was 73.7, 83.6, 96.3, 82.4, 86.9, 97, 88.6 (2×), 84.8, 74.9, 91.3, 82.9, 89.3, 93.2, 80.8, 97.3, 94.8, 92.4 (2×), 103, 79.6, 86.8, 86.6, 74.3, 63.4%.
As for `NC1CCC(NC2CC2c2ccccc2)CC1` (stereo not given), the viability, T/C was 89.8, 96.4, 115, 93.8, 102 (3×), 110 (3×), 114, 107, 99.5, 101, 100, 99.4, 94.5, 104, 89.7, 92.3, 87.7, 96.3, 96.6, 95.4, 85.4% (compound alone 0.1 µM); 86.3, 91.3, 94.3, 92, 92.9, 91.8, 102, 106 (2×), 99.6, 88.6, 95.1, 94, 90, 93.6, 90.6, 101, 98.5, 89.6, 86.4, 85.1, 92.1, 92.4, 75.7, 83.4% (compound alone 1 µM); 86.3, 87.9, 97.7, 94.7, 97.9, 106, 104 (2×), 90.3, 111, 99.6, 99.8, 93.8, 96.6, 96.3, 95.9, 93.6, 81, 86.7, 92.2, 99.1, 91.4, 84.9% (compound alone 3.16 µM); 85.1, 91.7, 95.4, 98.5, 97.9, 94.3, 103, 91.8, 113, 96.8, 93.8, 92.2, 95, 95.8, 109, 99.1, 91.5, 78.4, 91.1, 104, 101, 78.3, 78.2% (compound alone 10 µM).
Turning to `O=C(C=Cc1cccc(S(=O)(=O)Nc2ccccc2)c1)NO`, the viability, T/C (compound alone 3 µM) is 103% and 0.3%.
As a reminder, the IC50 is the concentration needed to halve the response being measured. Take `O=C(C=Cn1cnc(-c2cc(C(F)(F)F)cc(C(F)(F)F)c2)n1)NNc1cnccn1`: for the setting “compound alone”, the IC50 is < 3.16 nM and 182 nM.
